Data published in the supplement of paper PMC8728848.
The list shows a part of the results.

Columns and labels:
Test in all cases: glycan array binding signal (z-score within array); higher = stronger binding
Details in all cases: glycan notation: IUPAC condensed, linker removed
[1] = molecular target: Neu5Ac(a2-6)Gal(b1-4)GlcNAc(b1-2)Man(a1-3)[GlcNAc(b1-4)][Neu5Ac(a2-6)Gal(b1-4)GlcNAc(b1-2)Man(a1-6)]Man(b1-4)GlcNAc(b1-4)GlcNAc
Procedure, shortened: (§1)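 The binding signal is a Z-score computed within each array. Data were drawn from 3228 arrays in the Consortium for Functional Glycomics database, restricted to those with a known protein sequence. Scores were averaged over arrays of the same protein sequence at different concentrations or buffers, and over linkers, and negative values can be taken as non-binding.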

[2] = molecular target: Neu5Ac(a2-6)Gal(b1-4)GlcNAc(b1-2)Man(a1-3)[Man(a1-6)]Man(b1-4)GlcNAc(b1-4)GlcNAc
Procedure, shortened: as §1

[3] = molecular target: Neu5Ac(a2-6)Gal(b1-4)GlcNAc(b1-2)Man(a1-3)[Neu5Ac(a2-3)Gal(b1-4)GlcNAc(b1-2)Man(a1-6)]Man(b1-4)GlcNAc(b1-4)GlcNAc
Procedure, shortened: as §1

[4] = molecular target: Neu5Ac(a2-6)Gal(b1-4)GlcNAc(b1-2)Man(a1-3)[Neu5Ac(a2-6)Gal(b1-4)GlcNAc(b1-2)Man(a1-6)]Man(b1-4)GlcNAc(b1-4)GlcNAc
Procedure, shortened: as §1

[5] = molecular target: Neu5Ac(a2-6)Gal(b1-4)GlcNAc(b1-2)Man(a1-3)[Neu5Ac(a2-6)Gal(b1-4)GlcNAc(b1-2)Man(a1-6)]Man(b1-4)GlcNAc(b1-4)[Fuc(a1-6)]GlcNAc
Procedure, shortened: as §1

[6] = molecular target: Neu5Ac(a2-6)Gal(b1-4)GlcNAc(b1-2)Man(a1-6)Man(b1-4)GlcNAc(b1-4)GlcNAc
Procedure, shortened: as §1

[7] = molecular target: Neu5Ac(a2-6)Gal(b1-4)GlcNAc(b1-2)Man(a1-6)[Gal(b1-4)GlcNAc(b1-2)Man(a1-3)]Man(b1-4)GlcNAc(b1-4)GlcNAc
Procedure, shortened: as §1

[8] = molecular target: Neu5Ac(a2-6)Gal(b1-4)GlcNAc(b1-2)Man(a1-6)[GlcNAc(b1-2)Man(a1-3)]Man(b1-4)GlcNAc(b1-4)GlcNAc
Procedure, shortened: as §1

[9] = molecular target: Neu5Ac(a2-6)Gal(b1-4)GlcNAc(b1-2)Man(a1-6)[Man(a1-3)]Man(b1-4)GlcNAc(b1-4)GlcNAc
Procedure, shortened: as §1

[10] = molecular target: Neu5Ac(a2-6)Gal(b1-4)GlcNAc(b1-2)[Neu5Ac(a2-6)Gal(b1-4)GlcNAc(b1-4)]Man(a1-3)[GlcNAc(b1-4)][Neu5Ac(a2-6)Gal(b1-4)GlcNAc(b1-2)[Neu5Ac(a2-6)Gal(b1-4)GlcNAc(b1-6)]Man(a1-6)]Man(b1-4)GlcNAc(b1-4)GlcNAc
Procedure, shortened: as §1

[11] = molecular target: Neu5Ac(a2-6)Gal(b1-4)GlcNAc(b1-2)[Neu5Ac(a2-6)Gal(b1-4)GlcNAc(b1-4)]Man(a1-3)[GlcNAc(b1-4)][Neu5Ac(a2-6)Gal(b1-4)GlcNAc(b1-4)Man(a1-6)]Man(b1-4)GlcNAc(b1-4)GlcNAc
Procedure, shortened: as §1

[12] = molecular target: Neu5Ac(a2-6)Gal(b1-4)GlcNAc(b1-2)[Neu5Ac(a2-6)Gal(b1-4)GlcNAc(b1-6)]Man(a1-6)[Neu5Ac(a2-6)Gal(b1-4)GlcNAc(b1-2)Man(a1-3)][GlcNAc(b1-4)]Man(b1-4)GlcNAc(b1-4)GlcNAc
Procedure, shortened: as §1

[13] = molecular target: Neu5Ac(a2-6)Gal(b1-4)GlcNAc(b1-3)Gal(b1-3)GlcNAc
Procedure, shortened: as §1

[14] = molecular target: Neu5Ac(a2-6)Gal(b1-4)GlcNAc(b1-3)Gal(b1-4)GlcNAc
Procedure, shortened: as §1

[15] = molecular target: Neu5Ac(a2-6)Gal(b1-4)GlcNAc(b1-3)Gal(b1-4)GlcNAc(b1-2)Man(a1-3)[Neu5Ac(a2-6)Gal(b1-4)GlcNAc(b1-3)Gal(b1-4)GlcNAc(b1-2)Man(a1-6)]GalNAc
Procedure, shortened: as §1

[16] = molecular target: Neu5Ac(a2-6)Gal(b1-4)GlcNAc(b1-3)Gal(b1-4)GlcNAc(b1-3)Gal(b1-4)GlcNAc
Procedure, shortened: as §1

[17] = molecular target: Neu5Ac(a2-6)Gal(b1-4)GlcNAc(b1-3)Gal(b1-4)GlcNAc(b1-3)Gal(b1-4)GlcNAc(b1-2)Man(a1-3)[Neu5Ac(a2-6)Gal(b1-4)GlcNAc(b1-3)Gal(b1-4)GlcNAc(b1-3)Gal(b1-4)GlcNAc(b1-2)Man(a1-6)]GalNAc
Procedure, shortened: as §1

[18] = molecular target: Neu5Ac(a2-6)Gal(b1-4)GlcNAc(b1-3)Gal(b1-4)GlcNAc(b1-3)GalNAc
Procedure, shortened: as §1

[19] = molecular target: Neu5Ac(a2-6)Gal(b1-4)GlcNAc(b1-3)Gal(b1-4)GlcNAc(b1-3)[Neu5Ac(a2-6)Gal(b1-4)GlcNAc(b1-3)Gal(b1-4)GlcNAc(b1-6)]GalNAc
Procedure, shortened: as §1

[20] = molecular target: Neu5Ac(a2-6)Gal(b1-4)GlcNAc(b1-3)Gal(b1-4)GlcNAc(b1-6)[Gal(b1-3)]GalNAc
Procedure, shortened: as §1

[21] = molecular target: Neu5Ac(a2-6)Gal(b1-4)GlcNAc(b1-3)Gal(b1-4)[Fuc(a1-3)]GlcNAc(b1-3)Gal(b1-4)[Fuc(a1-3)]GlcNAc
Procedure, shortened: as §1

[22] = molecular target: Neu5Ac(a2-6)Gal(b1-4)GlcNAc(b1-3)GalNAc
Procedure, shortened: as §1

[23] = molecular target: Neu5Ac(a2-6)Gal(b1-4)GlcNAc(b1-3)[Neu5Ac(a2-6)Gal(b1-4)GlcNAc(b1-6)]GalNAc
Procedure, shortened: as §1

[24] = molecular target: Neu5Ac(a2-6)Gal(b1-4)GlcNAc(b1-6)GalNAc
Procedure, shortened: as §1

[25] = molecular target: Neu5Ac(a2-6)Gal(b1-4)GlcNAc(b1-6)[Gal(b1-3)GlcNAc(b1-3)]Gal(b1-4)Glc
Procedure, shortened: as §1

[26] = molecular target: Neu5Ac(a2-6)Gal(b1-4)GlcNAc(b1-6)[Gal(b1-3)]GalNAc
Procedure, shortened: as §1

[27] = molecular target: Neu5Ac(a2-6)Gal(b1-4)GlcNAc6S
Procedure, shortened: as §1

[28] = molecular target: Neu5Ac(a2-6)GalNAc
Procedure, shortened: as §1

[29] = molecular target: Neu5Ac(a2-6)GalNAc(b1-4)GlcNAc
Procedure, shortened: as §1

[30] = molecular target: Neu5Ac(a2-6)GalNAc(b1-4)GlcNAc6S
Procedure, shortened: as §1

[31] = molecular target: Neu5Ac(a2-6)GlcNAc(b1-4)GlcNAc
Procedure, shortened: as §1

[32] = molecular target: Neu5Ac(a2-6)GlcNAc(b1-4)GlcNAc(b1-4)GlcNAc
Procedure, shortened: as §1

[33] = molecular target: Neu5Ac(a2-8)Neu5Ac
Procedure, shortened: as §1

[34] = molecular target: Neu5Ac(a2-8)Neu5Ac(a2-3)Gal(b1-3)GalNAc(b1-4)[Neu5Ac(a2-3)]Gal(b1-4)Glc
Procedure, shortened: as §1

[35] = molecular target: Neu5Ac(a2-8)Neu5Ac(a2-3)Gal(b1-3)GalNAc(b1-4)[Neu5Ac(a2-8)Neu5Ac(a2-3)]Gal(b1-4)Glc
Procedure, shortened: as §1

[36] = molecular target: Neu5Ac(a2-8)Neu5Ac(a2-3)Gal(b1-4)Glc
Procedure, shortened: as §1

[37] = molecular target: Neu5Ac(a2-8)Neu5Ac(a2-3)Gal(b1-4)GlcNAc
Procedure, shortened: as §1

[38] = molecular target: Neu5Ac(a2-8)Neu5Ac(a2-3)[Gal(b1-3)GalNAc(b1-4)]Gal(b1-4)Glc
Procedure, shortened: as §1

B1: PpFlo1 (Pichia pastoris) (protein)
chain: MGSSHHHHHHSSGLVPRGSHMQESGDGDISDSAYACDIDATRYDGFNATIYEFQPGDGRLTRDPVFMSTGYLNRTQLHSITGVTDPGFSIYTPGVPTTTLYGIPNVNWENLLLELKGYFRAEVSGDYGLSLRNIDDSAILFFGKETAFQCCNENSISNEASTDYSLFTIFRQEGDETTNLDSFTYTQYLEAGKYYPVRTFFVNIERHAVFNFTMTLPDGTELTDFHNYIYQFGALDEEQCQA
In the case of B1, the “glycan array binding signal (z-score)” value [1] is reported as -0.336, the “glycan array binding signal (z-score)” value [2] is reported as -0.182 and the “glycan array binding signal (z-score)” value [3] is reported as -0.156. For the same binder, the “glycan array binding signal (z-score)” value [4] was 0.511, the “glycan array binding signal (z-score)” value [5] was 0.148 and the “glycan array binding signal (z-score)” value [6] was 0.134. For the same binder, the “glycan array binding signal (z-score)” value [7] was -0.159, the “glycan array binding signal (z-score)” value [8] was 0.632 and the “glycan array binding signal (z-score)” value [9] was -0.445. The “glycan array binding signal (z-score)” value [10] was -0.333, the “glycan array binding signal (z-score)” value [11] was -0.564 and the “glycan array binding signal (z-score)” value [12] was 0.318. The “glycan array binding signal (z-score)” value [13] was -0.559, the “glycan array binding signal (z-score)” value [14] was 1.01 and the “glycan array binding signal (z-score)” value [15] was 0.354. For the same binder, the “glycan array binding signal (z-score)” value [16] was -0.416, the “glycan array binding signal (z-score)” value [17] was -0.069 and the “glycan array binding signal (z-score)” value [18] was -0.424. For the same binder, the “glycan array binding signal (z-score)” value [19] was -0.175, the “glycan array binding signal (z-score)” value [20] was -0.511 and the “glycan array binding signal (z-score)” value [21] was 0.701. The “glycan array binding signal (z-score)” value [22] was -0.082, the “glycan array binding signal (z-score)” value [23] was 0.261 and the “glycan array binding signal (z-score)” value [24] was -0.171. For the same binder, the “glycan array binding signal (z-score)” value [25] was 0, the “glycan array binding signal (z-score)” value [26] was -0.094 and the “glycan array binding signal (z-score)” value [27] was 2.26. For the same binder, the “glycan array binding signal (z-score)” value [28] was 0.072, the “glycan array binding signal (z-score)” value [29] was -0.177 and the “glycan array binding signal (z-score)” value [30] was -0.213. For the same binder, the “glycan array binding signal (z-score)” value [31] was -0.29, the “glycan array binding signal (z-score)” value [32] was -0.209 and the “glycan array binding signal (z-score)” value [33] was 0.146. The “glycan array binding signal (z-score)” value [34] was -0.081, the “glycan array binding signal (z-score)” value [35] was -0.103 and the “glycan array binding signal (z-score)” value [36] was 0.631. For the same binder, the “glycan array binding signal (z-score)” value [37] was -0.504 and the “glycan array binding signal (z-score)” value [38] was -0.322.
